Results from article PMC5467238.
Results are given in words; binding and its absence hold for the method and conditions named. In cells and extracts the contact can be indirect. Some entries that bind do so weakly or less than the wild type. For some assays here: Where a sequence is shown, tags or fusion partners need not be part of it.

Chains of the proteins cited; added tags and fusions are not shown.
UniProt Q04637: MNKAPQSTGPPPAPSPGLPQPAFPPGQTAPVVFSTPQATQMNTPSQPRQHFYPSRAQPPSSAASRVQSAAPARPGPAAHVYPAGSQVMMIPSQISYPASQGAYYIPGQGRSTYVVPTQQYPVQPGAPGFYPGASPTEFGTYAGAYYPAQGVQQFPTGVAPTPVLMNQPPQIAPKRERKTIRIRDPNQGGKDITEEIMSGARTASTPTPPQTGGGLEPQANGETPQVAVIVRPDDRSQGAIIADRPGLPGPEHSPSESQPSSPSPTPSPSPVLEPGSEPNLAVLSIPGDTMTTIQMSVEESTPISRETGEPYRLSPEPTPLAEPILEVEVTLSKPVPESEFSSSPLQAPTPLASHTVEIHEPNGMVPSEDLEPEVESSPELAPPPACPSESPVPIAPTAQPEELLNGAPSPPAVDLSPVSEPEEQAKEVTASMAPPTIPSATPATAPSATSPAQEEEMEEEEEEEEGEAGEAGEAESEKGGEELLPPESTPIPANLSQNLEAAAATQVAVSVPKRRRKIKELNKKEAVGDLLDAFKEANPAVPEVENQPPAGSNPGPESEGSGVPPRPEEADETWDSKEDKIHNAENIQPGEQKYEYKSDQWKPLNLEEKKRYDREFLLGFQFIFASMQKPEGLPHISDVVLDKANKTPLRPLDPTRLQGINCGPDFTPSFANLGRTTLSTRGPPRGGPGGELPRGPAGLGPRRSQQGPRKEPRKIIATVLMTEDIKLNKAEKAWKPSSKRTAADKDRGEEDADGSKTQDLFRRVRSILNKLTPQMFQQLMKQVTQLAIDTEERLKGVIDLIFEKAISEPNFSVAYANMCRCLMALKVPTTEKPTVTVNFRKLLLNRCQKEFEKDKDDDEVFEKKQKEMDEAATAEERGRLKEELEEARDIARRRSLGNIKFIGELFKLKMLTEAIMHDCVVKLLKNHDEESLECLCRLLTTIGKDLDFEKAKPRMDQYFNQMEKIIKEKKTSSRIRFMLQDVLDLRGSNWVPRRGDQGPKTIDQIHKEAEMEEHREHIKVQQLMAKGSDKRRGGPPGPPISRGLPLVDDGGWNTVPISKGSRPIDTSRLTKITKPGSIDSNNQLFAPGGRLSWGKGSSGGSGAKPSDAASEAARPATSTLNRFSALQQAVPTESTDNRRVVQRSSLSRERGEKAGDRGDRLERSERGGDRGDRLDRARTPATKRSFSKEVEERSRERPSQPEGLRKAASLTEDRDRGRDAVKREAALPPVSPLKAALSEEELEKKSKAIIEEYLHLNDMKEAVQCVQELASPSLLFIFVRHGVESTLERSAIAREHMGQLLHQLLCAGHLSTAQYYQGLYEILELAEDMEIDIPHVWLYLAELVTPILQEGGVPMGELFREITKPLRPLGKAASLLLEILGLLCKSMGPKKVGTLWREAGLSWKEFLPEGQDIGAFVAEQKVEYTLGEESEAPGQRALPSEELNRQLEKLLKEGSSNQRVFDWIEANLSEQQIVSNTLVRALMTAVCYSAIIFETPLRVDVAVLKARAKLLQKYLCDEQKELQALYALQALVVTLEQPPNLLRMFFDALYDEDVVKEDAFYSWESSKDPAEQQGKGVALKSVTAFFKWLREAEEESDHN
UniProt O95817: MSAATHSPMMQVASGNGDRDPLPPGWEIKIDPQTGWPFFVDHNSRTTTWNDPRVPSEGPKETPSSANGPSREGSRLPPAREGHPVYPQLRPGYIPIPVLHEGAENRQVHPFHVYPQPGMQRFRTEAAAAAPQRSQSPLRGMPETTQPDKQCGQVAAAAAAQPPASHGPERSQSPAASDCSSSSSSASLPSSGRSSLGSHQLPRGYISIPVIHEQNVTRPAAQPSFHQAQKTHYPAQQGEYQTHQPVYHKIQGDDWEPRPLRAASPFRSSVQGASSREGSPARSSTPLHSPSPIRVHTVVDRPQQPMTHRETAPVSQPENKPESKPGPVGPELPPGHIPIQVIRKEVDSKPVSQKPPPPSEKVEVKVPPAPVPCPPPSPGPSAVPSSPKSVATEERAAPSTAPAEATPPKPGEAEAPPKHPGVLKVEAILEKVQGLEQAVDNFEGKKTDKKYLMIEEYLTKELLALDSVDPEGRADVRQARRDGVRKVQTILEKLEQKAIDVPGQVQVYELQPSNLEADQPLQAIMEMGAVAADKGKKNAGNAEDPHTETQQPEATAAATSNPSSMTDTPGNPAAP
UniProt P68104: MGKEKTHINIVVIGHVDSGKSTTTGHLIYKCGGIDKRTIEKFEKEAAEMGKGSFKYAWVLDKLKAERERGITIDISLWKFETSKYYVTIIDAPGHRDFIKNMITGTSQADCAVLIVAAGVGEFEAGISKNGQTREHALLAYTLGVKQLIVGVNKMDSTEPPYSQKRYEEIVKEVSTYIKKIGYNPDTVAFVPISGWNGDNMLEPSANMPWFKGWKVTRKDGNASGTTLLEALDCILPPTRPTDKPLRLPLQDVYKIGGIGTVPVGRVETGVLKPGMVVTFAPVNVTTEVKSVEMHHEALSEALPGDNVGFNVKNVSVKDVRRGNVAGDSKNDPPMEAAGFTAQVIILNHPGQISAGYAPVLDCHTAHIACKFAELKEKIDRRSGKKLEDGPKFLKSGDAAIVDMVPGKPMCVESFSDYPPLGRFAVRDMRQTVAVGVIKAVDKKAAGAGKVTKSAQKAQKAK
UniProt Q9UBN7: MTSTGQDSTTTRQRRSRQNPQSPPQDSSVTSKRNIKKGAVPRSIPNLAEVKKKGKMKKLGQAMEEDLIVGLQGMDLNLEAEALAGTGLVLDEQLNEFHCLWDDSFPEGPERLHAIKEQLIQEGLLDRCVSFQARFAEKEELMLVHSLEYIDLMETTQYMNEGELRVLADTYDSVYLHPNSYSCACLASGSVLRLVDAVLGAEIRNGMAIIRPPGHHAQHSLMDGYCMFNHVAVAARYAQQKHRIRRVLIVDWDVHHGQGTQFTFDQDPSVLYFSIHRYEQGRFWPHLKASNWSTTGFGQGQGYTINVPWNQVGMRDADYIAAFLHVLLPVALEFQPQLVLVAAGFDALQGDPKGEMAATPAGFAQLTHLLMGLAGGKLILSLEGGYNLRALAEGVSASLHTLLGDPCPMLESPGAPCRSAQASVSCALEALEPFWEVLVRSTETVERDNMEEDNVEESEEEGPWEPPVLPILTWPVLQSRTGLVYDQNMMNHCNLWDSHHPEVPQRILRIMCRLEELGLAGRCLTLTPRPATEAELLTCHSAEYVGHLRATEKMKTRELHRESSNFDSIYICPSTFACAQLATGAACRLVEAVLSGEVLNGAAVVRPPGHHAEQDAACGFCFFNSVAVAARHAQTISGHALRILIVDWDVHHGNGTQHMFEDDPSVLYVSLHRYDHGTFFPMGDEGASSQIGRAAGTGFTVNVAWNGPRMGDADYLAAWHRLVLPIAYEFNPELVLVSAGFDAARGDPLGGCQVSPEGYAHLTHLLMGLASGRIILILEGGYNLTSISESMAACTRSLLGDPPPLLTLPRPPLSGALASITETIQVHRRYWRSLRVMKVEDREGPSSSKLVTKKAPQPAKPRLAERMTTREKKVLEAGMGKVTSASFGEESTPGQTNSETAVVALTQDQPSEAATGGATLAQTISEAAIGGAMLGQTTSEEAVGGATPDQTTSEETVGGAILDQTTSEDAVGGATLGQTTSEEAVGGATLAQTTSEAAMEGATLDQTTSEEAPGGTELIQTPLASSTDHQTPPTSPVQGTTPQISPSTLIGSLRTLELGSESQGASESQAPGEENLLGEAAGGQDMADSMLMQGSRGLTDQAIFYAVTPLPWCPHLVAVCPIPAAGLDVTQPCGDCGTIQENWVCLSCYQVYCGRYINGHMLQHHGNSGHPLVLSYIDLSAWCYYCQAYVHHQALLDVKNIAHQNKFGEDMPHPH
UniProt P55884: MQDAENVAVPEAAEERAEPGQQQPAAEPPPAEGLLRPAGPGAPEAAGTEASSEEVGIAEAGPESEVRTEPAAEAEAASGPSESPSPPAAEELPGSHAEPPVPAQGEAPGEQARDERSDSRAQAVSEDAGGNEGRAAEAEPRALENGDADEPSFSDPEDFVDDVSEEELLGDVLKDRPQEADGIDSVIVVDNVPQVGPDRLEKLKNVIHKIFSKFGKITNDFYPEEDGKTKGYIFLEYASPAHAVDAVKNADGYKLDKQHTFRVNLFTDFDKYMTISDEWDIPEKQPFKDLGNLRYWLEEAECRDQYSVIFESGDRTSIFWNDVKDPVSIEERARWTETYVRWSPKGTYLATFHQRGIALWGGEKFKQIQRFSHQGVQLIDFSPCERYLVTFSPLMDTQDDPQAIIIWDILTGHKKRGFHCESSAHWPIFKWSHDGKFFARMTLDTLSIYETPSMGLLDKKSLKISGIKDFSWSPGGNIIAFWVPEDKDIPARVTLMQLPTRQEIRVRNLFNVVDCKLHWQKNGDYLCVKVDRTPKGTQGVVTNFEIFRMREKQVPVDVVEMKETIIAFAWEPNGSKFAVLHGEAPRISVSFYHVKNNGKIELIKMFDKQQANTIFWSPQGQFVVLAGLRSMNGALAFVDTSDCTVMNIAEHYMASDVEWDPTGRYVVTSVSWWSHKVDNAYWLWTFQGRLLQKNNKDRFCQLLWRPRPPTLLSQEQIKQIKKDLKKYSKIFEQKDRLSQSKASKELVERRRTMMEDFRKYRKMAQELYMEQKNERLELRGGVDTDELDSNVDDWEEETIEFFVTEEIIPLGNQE
UniProt P38919: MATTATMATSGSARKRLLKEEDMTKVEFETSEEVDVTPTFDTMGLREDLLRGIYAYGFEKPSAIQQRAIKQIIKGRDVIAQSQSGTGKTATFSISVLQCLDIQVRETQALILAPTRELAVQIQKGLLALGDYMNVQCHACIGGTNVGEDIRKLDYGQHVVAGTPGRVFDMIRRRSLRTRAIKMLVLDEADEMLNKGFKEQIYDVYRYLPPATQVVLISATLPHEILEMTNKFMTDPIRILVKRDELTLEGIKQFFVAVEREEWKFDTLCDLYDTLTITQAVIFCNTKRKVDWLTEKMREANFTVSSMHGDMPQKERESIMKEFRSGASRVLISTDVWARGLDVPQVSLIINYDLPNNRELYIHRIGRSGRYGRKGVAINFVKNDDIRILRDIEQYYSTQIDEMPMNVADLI
UniProt P06730: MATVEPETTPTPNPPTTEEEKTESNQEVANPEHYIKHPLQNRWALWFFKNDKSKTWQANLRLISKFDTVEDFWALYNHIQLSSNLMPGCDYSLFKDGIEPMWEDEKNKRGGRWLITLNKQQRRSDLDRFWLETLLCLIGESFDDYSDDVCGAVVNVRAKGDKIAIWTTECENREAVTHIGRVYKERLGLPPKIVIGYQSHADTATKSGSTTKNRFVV

Experiments:
FLAG-CTIF-WT [1] = biological target: T1, FLAG-CTIF-WT (UniProt O43310); assay: co-IP; IP of FLAG-CTIF; cells untreated or treated with MG132; endogenous BAG3 detected
T1 sequence: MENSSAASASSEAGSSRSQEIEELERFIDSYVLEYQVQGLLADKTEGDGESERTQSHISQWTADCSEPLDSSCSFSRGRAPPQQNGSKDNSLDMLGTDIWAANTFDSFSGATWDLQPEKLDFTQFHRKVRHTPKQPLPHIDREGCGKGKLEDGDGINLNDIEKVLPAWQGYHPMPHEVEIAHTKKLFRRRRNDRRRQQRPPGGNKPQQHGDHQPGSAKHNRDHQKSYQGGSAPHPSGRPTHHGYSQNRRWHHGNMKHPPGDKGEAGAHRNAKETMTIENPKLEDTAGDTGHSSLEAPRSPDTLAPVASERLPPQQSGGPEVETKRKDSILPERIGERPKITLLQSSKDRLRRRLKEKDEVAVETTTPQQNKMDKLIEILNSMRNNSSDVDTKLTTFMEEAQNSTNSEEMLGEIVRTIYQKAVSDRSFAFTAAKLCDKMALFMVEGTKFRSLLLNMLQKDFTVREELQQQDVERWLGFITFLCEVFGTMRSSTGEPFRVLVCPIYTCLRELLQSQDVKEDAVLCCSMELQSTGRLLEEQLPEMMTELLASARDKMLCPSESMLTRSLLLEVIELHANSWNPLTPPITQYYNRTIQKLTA

[2] = biological target: T2, GST-tagged CTIF (recombinant) (UniProt O43310); assay: pull-down; in vitro GST pull-down with recombinant proteins expressed in E. coli; GST-tagged protein with His-eEF1A1 or His-DCTN1 in 10 mM Tris-HCl pH 8.0, 150 mM NaCl, 1% glycerol, 0.001% BSA, 0.1% Triton X-100, 4 °C, 1 h; Glutathione Sepharose 4B; western blotting
T2 sequence: T1 sequence

FLAG-CTIF-WT [3] = biological target: T1, FLAG-CTIF-WT; assay: co-IP; IP of FLAG-CTIF with FLAG antibody-conjugated agarose beads; cells untreated or treated with MG132; extracts treated with RNase A; NET-2 buffer, 4 °C; western blotting
[4] = biological target: eIF4GI (human (endogenous in the human cell lines used)) (UniProt Q04637); assay: co-IP; IP of eIF4GI (Supplementary Fig. 5c); western blotting
[5] = biological target: T3, CBC-dependent translation (CT) initiation factor (CTIF), endogenous (human (endogenous in HEK293T)) (UniProt O43310); assay: co-IP; IP of endogenous CTIF from extracts of HEK293T cells depleted of eEF1A1 or DCTN1 by siRNA and treated with MG132 for 12 h; extracts treated with RNase A
T3 sequence: T1 sequence

[6] = biological target: T3, CBC-dependent translation (CT) initiation factor (CTIF), endogenous (human (endogenous in HEK293T)); assay: co-IP; IP of endogenous CTIF with α-CTIF antibody (control rabbit IgG) from extracts of HEK293T cells untreated or treated with MG132 for 12 h; extracts treated with RNase A; western blotting
MYC-CTIF(1–53)-GST = biological target: T4, MYC-CTIF(1–53)-GST (UniProt O43310); assay: pull-down; GST pull-down of MYC-CTIF(1–53)-GST, MYC-CTIF(12–53)-GST or MYC-GST expressed from pCMV-Myc plasmids; DCTN1 and eEF1A1 detected
T4 sequence: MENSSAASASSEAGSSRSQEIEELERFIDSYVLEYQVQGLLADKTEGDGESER

MYC-CTIF(12–53)-GST = biological target: T5, MYC-CTIF(12–53)-GST (UniProt O43310); assay: as above
T5 sequence: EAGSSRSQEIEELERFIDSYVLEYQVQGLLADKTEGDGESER

FLAG-CTIF(1–305) = biological target: T6, FLAG-CTIF(1–305) (UniProt O43310); assay: co-IP; domain mapping: IPs of FLAG-tagged CTIF WT and deletion variants from HEK293T cells; western blotting
T6 sequence: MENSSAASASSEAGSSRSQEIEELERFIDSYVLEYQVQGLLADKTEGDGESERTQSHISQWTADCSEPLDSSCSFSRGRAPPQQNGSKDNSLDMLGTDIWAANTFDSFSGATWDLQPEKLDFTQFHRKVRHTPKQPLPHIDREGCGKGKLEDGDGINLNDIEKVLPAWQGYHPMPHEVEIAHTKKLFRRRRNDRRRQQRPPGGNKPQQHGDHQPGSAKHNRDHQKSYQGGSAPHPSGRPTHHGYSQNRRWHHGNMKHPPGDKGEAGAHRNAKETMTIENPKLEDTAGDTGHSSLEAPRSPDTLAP

FLAG-CTIF-WT [7] = biological target: T1, FLAG-CTIF-WT; assay: as above
FLAG-CTIF(101–598) = biological target: T7, FLAG-CTIF(101–598) (UniProt O43310); assay: as above
T7 sequence: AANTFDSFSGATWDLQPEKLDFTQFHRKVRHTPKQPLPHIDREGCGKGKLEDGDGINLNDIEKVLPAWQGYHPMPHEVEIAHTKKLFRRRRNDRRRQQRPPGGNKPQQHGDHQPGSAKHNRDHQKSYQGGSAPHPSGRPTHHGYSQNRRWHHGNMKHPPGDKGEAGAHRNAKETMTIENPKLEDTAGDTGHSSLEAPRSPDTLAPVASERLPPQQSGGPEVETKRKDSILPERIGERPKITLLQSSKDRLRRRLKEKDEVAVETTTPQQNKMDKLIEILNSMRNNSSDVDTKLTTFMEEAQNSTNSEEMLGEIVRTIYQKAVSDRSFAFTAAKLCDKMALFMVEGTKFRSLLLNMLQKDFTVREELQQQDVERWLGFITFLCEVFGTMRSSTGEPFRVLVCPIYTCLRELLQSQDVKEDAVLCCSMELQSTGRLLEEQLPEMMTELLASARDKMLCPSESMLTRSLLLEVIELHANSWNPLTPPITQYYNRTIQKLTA

FLAG-CTIF(54–598) = biological target: T8, FLAG-CTIF(54–598) (UniProt O43310); assay: as above
T8 sequence: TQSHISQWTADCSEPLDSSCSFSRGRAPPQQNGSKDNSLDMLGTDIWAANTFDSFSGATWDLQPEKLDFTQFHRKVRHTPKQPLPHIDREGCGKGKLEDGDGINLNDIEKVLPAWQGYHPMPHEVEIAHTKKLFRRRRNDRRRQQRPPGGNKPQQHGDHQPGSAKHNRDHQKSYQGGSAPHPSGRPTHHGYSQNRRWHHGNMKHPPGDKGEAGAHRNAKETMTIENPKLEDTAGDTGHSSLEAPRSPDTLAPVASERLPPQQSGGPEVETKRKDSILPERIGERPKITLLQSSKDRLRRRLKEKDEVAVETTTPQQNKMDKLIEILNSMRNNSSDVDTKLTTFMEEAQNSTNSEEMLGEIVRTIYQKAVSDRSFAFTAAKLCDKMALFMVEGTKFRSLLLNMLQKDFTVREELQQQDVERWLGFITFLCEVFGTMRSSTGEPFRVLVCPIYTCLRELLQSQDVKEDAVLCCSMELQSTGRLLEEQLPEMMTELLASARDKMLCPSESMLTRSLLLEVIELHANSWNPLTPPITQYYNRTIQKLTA

FLAG-CTIF(12–598) = biological target: T9, FLAG-CTIF(12–598) (UniProt O43310); assay: as above
T9 sequence: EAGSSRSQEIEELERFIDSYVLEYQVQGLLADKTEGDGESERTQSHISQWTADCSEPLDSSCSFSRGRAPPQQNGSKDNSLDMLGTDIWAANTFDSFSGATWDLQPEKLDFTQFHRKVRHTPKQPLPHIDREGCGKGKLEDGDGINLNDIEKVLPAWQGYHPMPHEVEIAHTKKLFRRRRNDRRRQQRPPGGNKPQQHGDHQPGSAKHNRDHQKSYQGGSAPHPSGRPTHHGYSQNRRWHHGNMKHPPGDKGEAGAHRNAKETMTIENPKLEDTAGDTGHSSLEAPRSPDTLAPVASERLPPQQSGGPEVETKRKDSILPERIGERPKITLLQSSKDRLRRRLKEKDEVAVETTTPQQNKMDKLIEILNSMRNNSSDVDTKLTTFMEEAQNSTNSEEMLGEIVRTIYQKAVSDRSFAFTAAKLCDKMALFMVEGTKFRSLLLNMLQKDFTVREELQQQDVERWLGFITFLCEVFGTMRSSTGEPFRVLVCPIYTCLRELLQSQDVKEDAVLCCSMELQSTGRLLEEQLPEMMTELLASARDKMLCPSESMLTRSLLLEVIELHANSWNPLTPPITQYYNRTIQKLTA

With “BCL2-associated athanogene 3 (BAG3), endogenous (from UniProt O95817 1-575)” the binding (FLAG-CTIF-WT [1]) was “binds”.

For “His-eEF1A1 (recombinant human eukaryotic translation elongation factor 1 alpha 1) (from UniProt P68104 1-462)”, the binding [2] was “binds”.

In the case of “Histone deacetylase 6 (HDAC6), endogenous (from UniProt Q9UBN7 1-1215)”, the binding (FLAG-CTIF-WT [3]) was “binds”.

In the case of “dynactin 1 (DCTN1), endogenous (from UniProt Q14203-1 1-1278)”, the binding [4] was “binds weakly”.

“eIF3b, endogenous (from UniProt P55884 1-814)” was tested, and the binding [5] was “binds”, the binding [6] was “binds” and the binding (FLAG-CTIF-WT [3]) was “binds”.

“eIF4AIII, endogenous (from UniProt P38919 1-411)” was tested, and the binding [6] was “binds” and the binding (FLAG-CTIF-WT [3]) was “binds”.

For “eukaryotic translation elongation factor 1 alpha 1 (eEF1A1), endogenous (from UniProt P68104 1-462)”, the binding (MYC-CTIF(1–53)-GST) was “binds”, the binding (MYC-CTIF(12–53)-GST) was “binds” and the binding [5] was “no binding (condition: cells depleted of DCTN1 by siRNA)”. For the same substance, the binding [6] was “binds”, the binding (FLAG-CTIF-WT [3]) was “binds” and the binding (FLAG-CTIF(1–305)) was “binds”. For the same substance, the binding (FLAG-CTIF-WT [7]) was “binds”, the binding (FLAG-CTIF(101–598)) was “no binding” and the binding (FLAG-CTIF(54–598)) was “no binding”. For the same substance, the binding (FLAG-CTIF(12–598)) was “binds”.

For “eukaryotic translation initiation factor 4E (eIF4E), endogenous (from UniProt P06730 1-217)”, the binding [6] was “no binding” and the binding (FLAG-CTIF-WT [3]) was “no binding”.

For “stem-loop–binding protein (SLBP), endogenous (from UniProt Q14493 1-270)”, the binding (FLAG-CTIF(1–305)) was “no binding”, the binding (FLAG-CTIF-WT [7]) was “binds” and the binding (FLAG-CTIF(101–598)) was “binds”. For the same substance, the binding (FLAG-CTIF(54–598)) was “binds” and the binding (FLAG-CTIF(12–598)) was “binds”.
